# Reference: the supplement of paper PMC8728848
# This is one part of the list.
# B1: OrysaEULS2 (Oryza sativa) (protein)
# chain: MVYCRANPNYAMTARNGAVVLAPANPKDEYQHWIKDMRWSTSIKDEEGYPAFALVNKATGQAIKHSLGQSHPVRLVPYNPEVMDESVLWTESRDVGNGFRCIRMVNNIYLNFDAFHGDKYHGGVRDGTDIVLWKWCEGDNQRWKIQPYYILEQKLISEEDLNSAVDHHHHHH
# Tests used:
# Experiment in all cases: glycan array binding signal (z-score within array); higher = stronger binding
# Conditions in all cases: glycan notation: IUPAC condensed, linker removed
# Fuc(a1-2)Gal = biological target: Fuc(a1-2)Gal
# Method in brief: (§1)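 Negative Z-scores can be read as non-binding. The Z-score is calculated within each array and then averaged across arrays of one protein sequence at different concentrations or buffers and across linkers. Arrays, 3228 in all, were curated from the Consortium for Functional Glycomics database and kept only where the protein sequence was available.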
# Fuc(a1-2)Gal(b1-3)GalNAc = biological target: Fuc(a1-2)Gal(b1-3)GalNAc
# Method in brief: as §1
# [1] = biological target: Fuc(a1-2)Gal(b1-3)GalNAc(a1-3)[Fuc(a1-2)]Gal(b1-4)Glc
# Method in brief: as §1
# [2] = biological target: Fuc(a1-2)Gal(b1-3)GalNAc(a1-3)[Fuc(a1-2)]Gal(b1-4)GlcNAc
# Method in brief: as §1
# [3] = biological target: Fuc(a1-2)Gal(b1-3)GalNAc(b1-3)Gal
# Method in brief: as §1
# [4] = biological target: Fuc(a1-2)Gal(b1-3)GalNAc(b1-3)Gal(a1-4)Gal(b1-4)Glc
# Method in brief: as §1
# [5] = biological target: Fuc(a1-2)Gal(b1-3)GalNAc(b1-4)[Neu5Ac(a2-3)]Gal(b1-4)Glc
# Method in brief: as §1
# Fuc(a1-2)Gal(b1-3)GlcNAc = biological target: Fuc(a1-2)Gal(b1-3)GlcNAc
# Method in brief: as §1
# [6] = biological target: Fuc(a1-2)Gal(b1-3)GlcNAc(b1-2)Man(a1-3)[Fuc(a1-2)Gal(b1-3)GlcNAc(b1-2)Man(a1-6)]Man(b1-4)GlcNAc(b1-4)GlcNAc
# Method in brief: as §1
# [7] = biological target: Fuc(a1-2)Gal(b1-3)GlcNAc(b1-2)Man(a1-3)[Fuc(a1-2)Gal(b1-3)GlcNAc(b1-2)Man(a1-6)]Man(b1-4)GlcNAc(b1-4)[Fuc(a1-6)]GlcNAc
# Method in brief: as §1
# [8] = biological target: Fuc(a1-2)Gal(b1-3)GlcNAc(b1-3)Gal(b1-4)Glc
# Method in brief: as §1
# [9] = biological target: Fuc(a1-2)Gal(b1-3)GlcNAc(b1-3)GalNAc
# Method in brief: as §1
# [10] = biological target: Fuc(a1-2)Gal(b1-3)GlcNAc(b1-3)[Fuc(a1-2)Gal(b1-3)GlcNAc(b1-6)]GalNAc
# Method in brief: as §1
# [11] = biological target: Fuc(a1-2)Gal(b1-3)GlcNAc(b1-3)[Fuc(a1-3)[Gal(b1-4)]GlcNAc(b1-6)]Gal(b1-4)Glc
# Method in brief: as §1
# [12] = biological target: Fuc(a1-2)Gal(b1-3)GlcNAc(b1-3)[Gal(b1-4)GlcNAc(b1-6)]Gal(b1-4)Glc
# Method in brief: as §1
# [13] = biological target: Fuc(a1-2)Gal(b1-3)GlcNAc(b1-3)[Neu5Ac(a2-6)Gal(b1-4)GlcNAc(b1-6)]Gal(b1-4)Glc
# Method in brief: as §1
# [14] = biological target: Fuc(a1-2)Gal(b1-3)GlcNAc6S
# Method in brief: as §1
# [15] = biological target: Fuc(a1-2)Gal(b1-3)[Fuc(a1-4)]GlcNAc
# Method in brief: as §1
# [16] = biological target: Fuc(a1-2)Gal(b1-3)[Fuc(a1-4)]GlcNAc(b1-2)Man(a1-3)[Fuc(a1-2)Gal(b1-3)[Fuc(a1-4)]GlcNAc(b1-2)Man(a1-3)]Man(b1-4)GlcNAc(b1-4)GlcNAc
# Method in brief: as §1
# [17] = biological target: Fuc(a1-2)Gal(b1-3)[Fuc(a1-4)]GlcNAc(b1-2)Man(a1-3)[Fuc(a1-2)Gal(b1-3)[Fuc(a1-4)]GlcNAc(b1-2)Man(a1-6)]Man(b1-4)GlcNAc(b1-4)GlcNAc
# Method in brief: as §1
# [18] = biological target: Fuc(a1-2)Gal(b1-3)[Fuc(a1-4)]GlcNAc(b1-2)Man(a1-3)[Fuc(a1-2)Gal(b1-3)[Fuc(a1-4)]GlcNAc(b1-2)Man(a1-6)]Man(b1-4)GlcNAc(b1-4)[Fuc(a1-6)]GlcNAc(b1-4)[Fuc(a1-6)]GlcNAc
# Method in brief: as §1
# [19] = biological target: Fuc(a1-2)Gal(b1-3)[Fuc(a1-4)]GlcNAc(b1-2)Man(a1-6)[Fuc(a1-2)Gal(b1-3)[Fuc(a1-4)]GlcNAc(b1-2)Man(a1-3)]Man(b1-4)GlcNAc(b1-4)[Fuc(a1-6)]GlcNAc
# Method in brief: as §1
# [20] = biological target: Fuc(a1-2)Gal(b1-3)[Fuc(a1-4)]GlcNAc(b1-3)[Fuc(a1-3)[Gal(b1-4)]GlcNAc(b1-6)]Gal(b1-4)Glc
# Method in brief: as §1
# [21] = biological target: Fuc(a1-2)Gal(b1-3)[Fuc(a1-4)]GlcNAc(b1-3)[Gal(b1-4)GlcNAc(b1-6)]Gal(b1-4)Glc
# Method in brief: as §1
# [22] = biological target: Fuc(a1-2)Gal(b1-4)Fuc(a1-3)]GlcNAc(b1-2)Man(a1-3)[Fuc(a1-2)Gal(b1-4)[Fuc(a1-3)]GlcNAc(b1-2)Man(a1-6)]Man(b1-4)GlcNAc(b1-4)GlcNAc
# Method in brief: as §1
# Fuc(a1-2)Gal(b1-4)Glc = biological target: Fuc(a1-2)Gal(b1-4)Glc
# Method in brief: as §1
# Fuc(a1-2)Gal(b1-4)Glc6S = biological target: Fuc(a1-2)Gal(b1-4)Glc6S
# Method in brief: as §1
# Fuc(a1-2)Gal(b1-4)GlcNAc = biological target: Fuc(a1-2)Gal(b1-4)GlcNAc
# Method in brief: as §1
# [23] = biological target: Fuc(a1-2)Gal(b1-4)GlcNAc(b1-2)Man
# Method in brief: as §1
# [24] = biological target: Fuc(a1-2)Gal(b1-4)GlcNAc(b1-2)Man(a1-3)[Fuc(a1-2)Gal(b1-4)GlcNAc(b1-2)Man(a1-6)]Man(b1-4)GlcNAc(b1-4)GlcNAc
# Method in brief: as §1
# [25] = biological target: Fuc(a1-2)Gal(b1-4)GlcNAc(b1-2)Man(a1-3)[Fuc(a1-2)Gal(b1-4)GlcNAc(b1-2)Man(a1-6)]Man(b1-4)GlcNAc(b1-4)[Fuc(a1-6)]GlcNAc
# Method in brief: as §1
# [26] = biological target: Fuc(a1-2)Gal(b1-4)GlcNAc(b1-2)[Fuc(a1-2)Gal(b1-4)GlcNAc(b1-4)]Man(a1-3)[Fuc(a1-2)Gal(b1-4)GlcNAc(b1-2)Man(a1-6)]Man(b1-4)GlcNAc(b1-4)GlcNAc
# Method in brief: as §1
# [27] = biological target: Fuc(a1-2)Gal(b1-4)GlcNAc(b1-3)Gal(b1-4)GlcNAc
# Method in brief: as §1
# [28] = biological target: Fuc(a1-2)Gal(b1-4)GlcNAc(b1-3)Gal(b1-4)GlcNAc(b1-2)Man(a1-3)[Fuc(a1-2)Gal(b1-4)GlcNAc(b1-3)Gal(b1-4)GlcNAc(b1-2)Man(a1-6)]Man(b1-4)GlcNAc(b1-4)GlcNAc
# Method in brief: as §1
# [29] = biological target: Fuc(a1-2)Gal(b1-4)GlcNAc(b1-3)Gal(b1-4)GlcNAc(b1-3)Gal(b1-4)GlcNAc
# Method in brief: as §1
# [30] = biological target: Fuc(a1-2)Gal(b1-4)GlcNAc(b1-3)GalNAc
# Method in brief: as §1
# [31] = biological target: Fuc(a1-2)Gal(b1-4)GlcNAc(b1-3)[Fuc(a1-2)Gal(b1-4)GlcNAc(b1-6)]GalNAc
# Method in brief: as §1
# [32] = biological target: Fuc(a1-2)Gal(b1-4)GlcNAc(b1-3)[Fuc(a1-3)[Gal(b1-4)]GlcNAc(b1-6)]Gal(b1-4)Glc
# Method in brief: as §1
# [33] = biological target: Fuc(a1-2)Gal(b1-4)GlcNAc(b1-6)GalNAc
# Method in brief: as §1
# [34] = biological target: Fuc(a1-2)Gal(b1-4)GlcNAc6S
# Method in brief: as §1
# [35] = biological target: Fuc(a1-2)Gal(b1-4)[Fuc(a1-3)]GlcNAc
# Method in brief: as §1
# [36] = biological target: Fuc(a1-2)Gal(b1-4)[Fuc(a1-3)]GlcNAc(b1-2)Man(a1-3)[Fuc(a1-2)Gal(b1-4)[Fuc(a1-3)]GlcNAc(b1-2)Man(a1-6)]Man(b1-4)GlcNAc(b1-4)GlcNAc
# Method in brief: as §1
# [37] = biological target: Fuc(a1-2)Gal(b1-4)[Fuc(a1-3)]GlcNAc(b1-2)Man(a1-3)[Fuc(a1-2)Gal(b1-4)[Fuc(a1-3)]GlcNAc(b1-2)Man(a1-6)]Man(b1-4)GlcNAc(b1-4)[Fuc(a1-6)]GlcNAc
# Method in brief: as §1
# [38] = biological target: Fuc(a1-2)Gal(b1-4)[Fuc(a1-3)]GlcNAc(b1-2)Man(a1-6)[Fuc(a1-2)Gal(b1-4)[Fuc(a1-3)]GlcNAc(b1-2)Man(a1-3)]Man(b1-4)GlcNAc(b1-4)[Fuc(a1-6)]GlcNAc
# Method in brief: as §1
# [39] = biological target: Fuc(a1-2)Gal(b1-4)[Fuc(a1-3)]GlcNAc(b1-2)[Fuc(a1-2)Gal(b1-4)[Fuc(a1-3)]GlcNAc(b1-4)]Man(a1-3)[Fuc(a1-2)Gal(b1-4)[Fuc(a1-3)]GlcNAc(b1-2)Man(a1-6)]Man(b1-4)GlcNAc(b1-4)GlcNAc
# Method in brief: as §1
binder,measurement,setting,value
B1,glycan array binding signal (z-score),Fuc(a1-2)Gal,-0.182
same,glycan array binding signal (z-score),Fuc(a1-2)Gal(b1-3)GalNAc,-0.205
same,glycan array binding signal (z-score),[1],-0.196
same,glycan array binding signal (z-score),[2],-0.16
same,glycan array binding signal (z-score),[3],-0.191
same,glycan array binding signal (z-score),[4],-0.184
same,glycan array binding signal (z-score),[5],-0.2
same,glycan array binding signal (z-score),Fuc(a1-2)Gal(b1-3)GlcNAc,-0.191
same,glycan array binding signal (z-score),[6],-0.098
same,glycan array binding signal (z-score),[7],-0.159
same,glycan array binding signal (z-score),[8],-0.207
same,glycan array binding signal (z-score),[9],-0.199
same,glycan array binding signal (z-score),[10],-0.192
same,glycan array binding signal (z-score),[11],-0.165
same,glycan array binding signal (z-score),[12],-0.191
same,glycan array binding signal (z-score),[13],-0.185
same,glycan array binding signal (z-score),[14],-0.215
same,glycan array binding signal (z-score),[15],-0.163
same,glycan array binding signal (z-score),[16],-0.184
same,glycan array binding signal (z-score),[17],-0.074
same,glycan array binding signal (z-score),[18],-0.187
same,glycan array binding signal (z-score),[19],-0.17
same,glycan array binding signal (z-score),[20],-0.17
same,glycan array binding signal (z-score),[21],-0.17
same,glycan array binding signal (z-score),[22],0.116
same,glycan array binding signal (z-score),Fuc(a1-2)Gal(b1-4)Glc,-0.164
same,glycan array binding signal (z-score),Fuc(a1-2)Gal(b1-4)Glc6S,-0.194
same,glycan array binding signal (z-score),Fuc(a1-2)Gal(b1-4)GlcNAc,-0.204
same,glycan array binding signal (z-score),[23],-0.203
same,glycan array binding signal (z-score),[24],0.702
same,glycan array binding signal (z-score),[25],-0.104
same,glycan array binding signal (z-score),[26],-0.145
same,glycan array binding signal (z-score),[27],-0.19
same,glycan array binding signal (z-score),[28],0.507
same,glycan array binding signal (z-score),[29],-0.186
same,glycan array binding signal (z-score),[30],-0.182
same,glycan array binding signal (z-score),[31],-0.198
same,glycan array binding signal (z-score),[32],-0.276
same,glycan array binding signal (z-score),[33],-0.163
same,glycan array binding signal (z-score),[34],-0.181
same,glycan array binding signal (z-score),[35],-0.191
same,glycan array binding signal (z-score),[36],-0.159
same,glycan array binding signal (z-score),[37],-0.119
same,glycan array binding signal (z-score),[38],-0.082
same,glycan array binding signal (z-score),[39],-0.142
